The whole screen tested about 360,000 compounds, of which about 6,000 (1.7%) were called active. Inconclusive means that the source gave no clear call. Such entries were picked first, then a sample of the others. Calls follow the shape of the dose curve; as a rule, active = well fitted cell-killing curve with a large enough effect; inconclusive = small, poorly fitted or top-dose-only effect, or effect the other way; inactive = flat fitted curve, though single readings scatter. Potencies of inconclusive entries are left out as doubtful fits.
Experiment: qHTS for induction of synthetic lethality in tumor cells producing 2HG: qHTS for the HT-1080-NT fibrosarcoma cell line;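 also: NT is the 2HG producing partner of a matched IDH1 knockdown line; nearly all actives have a fitted effect of over 55% in size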;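 as to activity, negative = less viability: 0% = DMSO-treated cells and -100% = media-only wells without cells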
Settings: HT-1080-NT fibrosarcoma viability, CellTiter-Glo ATP luminescence, 48 h; activity, negative = less viability: at 46.1 µM (top of the series) unless noted
Procedure, shortened: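 Luminescent CellTiter-Glo readout after 48 hours of compound exposure at 37 degrees C defined viability of HT-1080-NT cells. Activity was normalized to DMSO wells and cell-free media wells; concentration-response curves were fitted and assigned curve classes.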
Potency is read from the fitted curve at half-maximal effect; tags tell the direction and shape of the fitted curve.

| Compound | Potency | activity, negative = less viability |
| --- | --- | --- |
| Oc1c(C(c2ccc(Cl)cc2)N2CCCC2)cc(Cl)c2cccnc12 (stereo not given) | inconclusive [cytotoxic, single point] | – |
| CCCOc1ccc(F)cc1-c1cc(C(=O)Nc2cc(OC)c(OC)c(OC)c2)[nH]n1 | inconclusive [cytotoxic, single point] | – |
| COc1cc(SC)ccc1C(=O)Nc1nc2ccccc2[nH]1 | active: 1.64 µM | – |
| O=C(O)c1ccccc1Nc1ccc([N+](=O)[O-])cc1 | inconclusive [cytotoxic, single point] | – |
| COc1ccc(C2C3=C(CC(C)(C)CC3=O)Oc3ncn4nc(-c5ccccc5)nc4c32)cc1 (stereo not given) | inactive | – |
| CCC(C(=O)Nc1cccc(C(F)(F)F)c1)c1ccccc1 (stereo not given) | inconclusive [cytotoxic, single point] | – |
| N#C/C(=C\c1c(N2CCCCC2)nc2ccccn2c1=O)S(=O)(=O)c1ccccc1 | inactive | – |
| Cc1ccc2nc(/C(C#N)=C\c3ccc([N+](=O)[O-])o3)[nH]c2c1 | inconclusive [cytotoxic, full curve, poor fit] | – |
| Oc1ccc(C=NNC(=S)Nc2ccccc2)nc1 | inconclusive [cytotoxic, full curve] | – |
| Cc1onc(-c2ccccc2)c1C(=O)N(Cc1ccccc1)C(C)C | – | inconclusive: 40.6% |
| CN(C)c1ccc(CNC(=O)C2(C)Cc3c(-c4cccc(C(N)=O)c4)ccnc3O2)cc1 (stereo not given) | inconclusive [cytotoxic, single point] | – |
| CCOC(=O)c1c(C)c(C(=O)Nc2ccc(N(C)C)cc2)c(C)n1CC | active: 8.91 µM | – |
| CC(=O)Nc1nnc(SCc2ccc(C(=O)Nc3ccccc3F)cc2)s1 | inconclusive [cytotoxic, single point] | – |
| COc1cccc(NC(=O)C2C3C=CC(O3)C2C(=O)O)c1 (stereo not given) | inconclusive [cytotoxic, single point] | – |
| COc1ccc(C(=O)OCC(=O)NCCc2ccc(F)cc2)cc1S(=O)(=O)N1CCOCC1 | inactive | – |
| CCc1ccc(OCC(=O)NC(NC(=S)Nc2ccc(Cl)cc2)C(Cl)(Cl)Cl)cc1 (stereo not given) | inconclusive [cytotoxic, single point] | – |
| CCOC(=O)/C=C(C)\C=C\c1c[nH]c2ccccc12 | inconclusive [cytotoxic, single point] | – |
| O=C(N/N=C/c1ccc(F)cc1)c1sccc1OCc1ccc(F)cc1 | active: 13 µM | – |
| C/C1=C\CCC2C(/C=C(\C)CC1)OC(=O)C2CN1CCCCC1 (stereo not given) | inconclusive [cytotoxic, single point] | – |
| O=C(c1ccc(S(=O)(=O)Cc2cc(F)ccc2F)c([N+](=O)[O-])c1)N1CCCC1 | inconclusive [cytotoxic, single point] | – |
| O=C(CCS(=O)(=O)c1ccccc1)N(CCCN1CCOCC1)c1nc2ccc(F)cc2s1 | inconclusive [cytotoxic, single point] | – |
| CN(C(=O)COC(=O)CCC(=O)c1ccc(F)cc1)C1CCCCC1 | inactive | – |
| CC(=O)n1c(Cl)c(NC(=O)CCl)c2ccccc21 | active: 5.62 µM | – |
| Cc1cc(C)c(C2=Nn3c(C)nnc3SC2C)cc1C (stereo not given) | inconclusive [cytotoxic, single point] | – |

| Compound | Potency | activity, negative = less viability |
| --- | --- | --- |
| C(=N\Nc1ccc2nncn2n1)/c1ccccn1 | inconclusive [cytotoxic, partial curve] | – |
| C(=C\c1ccccc1)/CN1CCN(C(c2cccc3ccccc23)c2nnnn2C2CCCC2)CC1 (stereo not given) | inconclusive [cytotoxic, partial curve] | – |
| COc1ccc(NC(=O)CCn2c(=S)[nH]c3ccccc3c2=O)cc1Cl | – | inconclusive: 32% |
| Cc1ccc(NC(=O)COC(=O)c2ccc([N+](=O)[O-])o2)cc1S(=O)(=O)N1CCCCCC1 | inactive | – |
| CC(CN1c2ccccc2Sc2ccccc21)N(C)C (stereo not given) | inactive | – |
| Cc1ccc(CCNc2ccc3ccccc3c2)cn1 | inconclusive [cytotoxic, single point] | – |
| CCOC(=O)N1CCN(S(=O)(=O)c2ccc(OC)c3ccccc23)CC1 | inconclusive [cytotoxic, single point] | – |
| CN1CCN(c2ccc(NC(=S)NC(=O)/C=C/c3ccco3)cc2)CC1 | inconclusive [cytotoxic, single point] | – |
| COc1ccc(C(=O)Nc2ccc(Cl)cc2C(=O)NCCO)cc1 | inconclusive [cytotoxic, single point] | – |
| O=C(c1cc2nc(-c3ccco3)cc(C(F)(F)F)n2n1)N1CCN(c2ccc(F)cc2)CC1 | inconclusive [cytotoxic, single point] | – |
| COc1ccc(C(=O)O/N=C(\N)c2ccc(Cl)cc2)cc1 | inactive | – |
| Cn1cc([C@]2(O)C(=O)Nc3ccc(OC(F)(F)F)cc32)c2ccccc21 | inconclusive [cytotoxic, single point] | – |
| Cc1cccc(CCNC(=O)c2cccc3c2C(=O)N(C2CCCCC2)C3)c1 | inconclusive [cytotoxic, single point] | – |
| COCCNc1nc(NCCOc2ccccc2)c2sc(-c3ccccc3)cc2n1 | active: 14.6 µM | – |
| CCOc1ccc(-c2nc(CN(Cc3ccccc3)C[C@@H]3CCC(=O)N3)c(C)o2)cc1 | inconclusive [cytotoxic, single point] | – |
| O=C(CNC(c1ccccc1)c1ccccc1)Nc1ccccc1F | inactive | – |
| CCN1C(=O)C2(C(C#N)=C(N)Oc3c2c(C)nn3-c2ccccc2)c2ccccc21 (stereo not given) | inactive | – |
| O=C(CCCn1c(SCc2cccc([N+](=O)[O-])c2)nc2ccccc2c1=O)NCC1CCCO1 (stereo not given) | inconclusive [cytotoxic, full curve] | – |
| CC(C)c1ccc2oc(-c3ccc(N)cc3)nc2c1 | inconclusive [cytotoxic, partial curve] | – |
| COc1cccc(CN2C(=O)C3(C(C#N)=C(N)OC4=C3C(=O)CCC4)c3ccccc32)c1 (stereo not given) | inconclusive [cytotoxic, single point] | – |
| Cc1cc(C)c(S(N)(=O)=O)c(C)c1N(C)S(=O)(=O)c1ccc(Cl)cc1 | inactive | – |
| CCC/C=C/c1ccc(CN2C(C(C)C)C(=O)N(Cc3cn(CC4CCCCC4)nn3)CCS2(=O)=O)cc1 (stereo not given) | inconclusive [cytotoxic, single point] | – |
| Cc1ccc(N=C2NC(=O)/C(=C/C=C/c3ccco3)S2)cc1C | inconclusive [cytotoxic, single point] | – |
| CC(C)[C@H](NC(=O)C1CCC(CNC(=O)[C@@H]2CCCN2C(=O)OC(C)(C)C)CC1)C(=O)O (stereo not given in full) | inactive | – |

| Compound | Potency | activity, negative = less viability |
| --- | --- | --- |
| NNc1ncnc2c1cnn2-c1ccccc1 | inconclusive [cytotoxic, single point] | – |
| Cc1cc(NC(=O)NC2(C(F)(F)F)Oc3ccc(Cl)cc3O2)no1 (stereo not given) | inconclusive [cytotoxic, single point] | – |
| CCOC(=O)c1[nH]ncc1CN1CCN(Cc2ccccc2)C(CCO)C1 (stereo not given) | inactive | – |
| O=C(COc1ccc(Cl)cc1)NCc1nnc(SCC(=O)NC2CCCCC2)o1 | inconclusive [cytotoxic, single point] | – |
| Cc1cc2cc(CNC(=S)NCc3ccccc3)ccc2n1C | inconclusive [cytotoxic, single point] | – |
| O=C(COc1ccc(Cl)cc1Cl)N(c1ccccn1)C1CCCCC1 | inactive | – |
| Cc1cc(C)n(-c2ccc(NC(=O)C3CCCCN3C(=O)c3cc(C)oc3C)cc2)n1 (stereo not given) | inactive | – |
| CCOc1cc(/C=C/C(=O)Nc2ccc(C(=O)NCCN(CC)CC)cc2)ccc1OCC(C)C | inconclusive [cytotoxic, single point] | – |
| CC1=Nc2cc(C(=O)NCCCN3CCOCC3)ccc2Sc2c(C)ccc(C)c21 | active: 16.4 µM | – |
| CCOc1cc(CN2CCCCC2)ccc1OC | inactive | – |
| CC(C)(C)OC(=O)N[C@@H](Cc1ccccc1)c1nnc(SCC(=O)c2ccc(Cl)cc2)o1 | inconclusive [cytotoxic, single point] | – |
| COc1cc(CN2CCCC(C(=O)Nc3cccc(-n4cccn4)c3)C2)ccc1F (stereo not given) | inconclusive [cytotoxic, partial curve] | – |
| CCCCn1c(N)c(N(CC)C(=O)c2c(C)noc2C)c(=O)[nH]c1=O | inactive | – |
| COC(=O)C1=C(C(=O)OC)[N+]2=C3N(C(=O)NC2(C)C)[C@H](CO)C[C@@]32c3ccccc3N(Cc3ccccc3)[C@@H]12 | inactive | – |
| NS(=O)(=O)c1ccc(NC(=S)N2CCN(c3cccc(Cl)c3)CC2)cc1 | inconclusive [cytotoxic, single point] | – |
| O=C(OCc1ccc(F)cc1)c1cc2ccccc2cc1O | inactive | – |
| O=C(CSc1ncnc2c1cnn2CCc1ccccc1)Nc1cccc(C(F)(F)F)c1 | inconclusive [cytotoxic, single point] | – |
| CC1(C(=O)NCc2cccc3ccccc23)CCN1Cc1ccc(OC(F)(F)F)cc1 (stereo not given) | inconclusive [cytotoxic, single point] | – |
| COc1cc(CNC(C)(C)CO)cc(Br)c1OCc1ccc(Cl)cc1 | inconclusive [cytotoxic, single point] | – |
| O=C(Nc1ccc(F)cc1)Nc1ccc(S(=O)(=O)N2CCCC2)cc1 | inconclusive [cytotoxic, single point] | – |
| O=C(COC(=O)CC12CC3CC(CC(C3)C1)C2)Nc1cccnc1Cl | inactive | – |
| COc1ccc(C(=O)NCC(=O)N/N=C/c2cn(C)c3ccccc23)cc1OC | inactive | – |
